According to PubChem BioAssay AID686979 (National Center for Advancing Translational Sciences (NCATS), 2013):
Several values for one entry are separate records, joined by “and”; a condition that tells them apart may be missing. Equal values may be shown once. Screen size: about 420,000 compounds; about 50,000 (12%) were called active. This list was built around the results that the source calls inconclusive (neither active nor inactive); the mix of calls is not that of the screen. Calls come from the whole dose curve; as a rule, active = well fitted inhibition curve with a large enough effect; inconclusive = small, poorly fitted or top-dose-only effect; inactive = flat fitted curve, though single readings scatter. A potency beside an inconclusive call is a rough fit, not a confirmed value.

Assay: qHTS for Inhibitors of human tyrosyl-DNA phosphodiesterase 1 (TDP1): qHTS in cells in presence of CPT; note: nearly all actives have a fitted effect of over 55% in size
Settings: chicken DT40 Tdp1-/-;hTDP1 cells + 20 nM CPT, ATP luminescence, 48 h; activity change, negative = growth inhibition: at 46.2 µM (top of the series) unless noted
Outline: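 Chicken DT40 Tdp1-/- cells complemented with human TDP1, 400 cells/well, exposed to compounds plus 20 nM camptothecin for at least 48 h at 37 C; viability read as ATP content by CellTiter-Glo luminescence.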
% is set by controls: 0 for no effect and ±100 for the full control effect; potency is the fitted concentration of half-maximal effect; tags give direction and shape of the fitted curve.

| SMILES | Potency | activity change, negative = growth inhibition |
| --- | --- | --- |
| COc1cccc(OC)c1C(=O)NC(=S)NNC(=O)[C@H]1C[C@@H]1c1ccccc1 | inconclusive: 6.51 µM [inhibitor, single point] |  |
| CCNC(=O)Nc1ccc2c(c1)c(=O)n(C)n2CC=C(C)C | inactive |  |
| CCOC(=O)c1cnn(CCOC(=O)C(C)(C)C)c1NC(=O)C(C)(C)C | inactive |  |
| Cc1ccc(S(=O)(=O)Nc2ccc(NC(=O)c3cccs3)cc2)cc1 | inconclusive: 29.1 µM [inhibitor, single point] |  |
| Cc1ccc(N(CC(=O)NCc2ccc(F)cc2)C(=O)c2csnn2)cc1C | inconclusive: 14.6 µM [inhibitor, single point] |  |
| COC(=O)c1ccc(-c2ccc(C(c3c(C)[nH][nH]c3=O)c3c(C)[nH][nH]c3=O)o2)cc1 | inconclusive: 5.8 µM [inhibitor, single point] |  |
| CC1(C(=O)NS(=O)(=O)c2ccc(F)cc2F)CCN1C(=O)c1ccccc1CCc1ccccc1 (stereo not given) | inconclusive: 25.9 µM [inhibitor, single point] |  |
| CCCc1nc2ccccc2c(=O)n1/N=C/c1ccc(O)c(O)c1 | active: 11.6 µM |  |
| Cc1ccc(-c2nn(CCC(N)=O)c(=O)c3ccccc23)cc1 | inactive |  |
| Cc1ccccc1Cn1c2ccccc2c2cnn(CC(=O)NCCCN3CCN(C)CC3)c(=O)c21 | inconclusive: 23.1 µM [inhibitor, single point] |  |
| COc1cc(OC)cc(-c2c(C#Cc3ccsc3)c3cc(-c4cc(F)cc(F)c4)ccc3n2C)c1 | inconclusive: 16.4 µM [inhibitor, single point] |  |
| CC(=O)Nc1ccc(S(=O)(=O)N2CCCC2)cc1 | inconclusive: 29.1 µM [inhibitor, single point] |  |
| CCCN1CCC(NC(=O)Cc2ccccc2C)CC1 | inactive |  |
| Cc1ccc(NC(=O)CC(=O)c2ccccc2)cc1C | inconclusive: 20.6 µM [inhibitor, single point] |  |
| CC(=O)N(C1=C(N)C(=O)c2ccccc2C1=O)c1ccccc1 | active: 23.1 µM |  |
| COc1ccc(N=C2C=CC(=O)O2)cc1 | active: 5.17 µM |  |
| COc1ccc(S(=O)(=O)N2CCOCC2)cc1NC(=O)CCOc1ccc(C(C)(C)C)cc1 | inconclusive: 20.6 µM [inhibitor, single point] |  |
| Cc1ccc(C(=O)NS(=O)(=O)c2ccc(N=NN(C)C)cc2)cc1 | inactive |  |
| Cc1ccccc1NC(=O)c1ccccc1OCC(=O)Nc1ccc(Br)cc1 | inconclusive: 35.5 µM [inhibitor, single point] |  |
| COc1ccc(CNC(=O)C2CCN(C(=O)N3CCOc4ccc(Cl)cc43)CC2)cc1 | inconclusive: 3.66 µM [inhibitor, full curve] |  |
| O=S(=O)(Nc1ccc(C(O)(C(F)(F)F)C(F)(F)F)cc1)c1ccc(Cl)c2nonc12 | active: 13 µM |  |
| Cc1ccccc1OC(C)C(=O)Nc1ccc(S(=O)(=O)N2CCCC2)cc1 (stereo not given) | inconclusive: 25.9 µM [inhibitor, single point] |  |
| Cc1ccc(Nc2nc(N)c3ccccc3n2)cc1C | active: 14.6 µM |  |

| SMILES | Potency | activity change, negative = growth inhibition |
| --- | --- | --- |
| Cc1ccc(C)c(NC(=O)C2COc3ccccc3O2)c1 (stereo not given) | inactive |  |
| CCOC(=O)/C=C/C(=O)Nc1ccccc1C(=O)NC1CCCCC1 | inconclusive: 29.1 µM [inhibitor, single point] |  |
| COc1ccccc1-c1nnc(SC(C(=O)c2c[nH]c3ccccc23)c2ccccc2)n1C (stereo not given) | active: 20.6 µM |  |
| O=C(NC1CC1)c1sc2cc(Cl)ccc2c1Cl | inconclusive: 29.1 µM [inhibitor, single point] |  |
| Cc1cc(C(=O)N2CCC2(C)C(=O)Nc2cccc3ccccc23)nn1C (stereo not given) | inconclusive: 29.1 µM [inhibitor, single point] |  |
| COc1ncc2nc(CCc3ccccc3)c(=O)n(Cc3ccc(F)cc3)c2n1 | inconclusive: 23.1 µM [inhibitor, single point] |  |
| CC(=O)Nc1cc(-c2ccc(N3CCN(C)CC3)cc2)cn2c(-c3ccc(F)c(Cl)c3)cnc12 | active: 18.4 µM |  |
| CCC(=O)N1CCN(c2ccc(Cl)cc2NC(=S)NC(=O)c2ccco2)CC1 | inconclusive: 29.1 µM [inhibitor, single point] |  |
| COc1cccc(Cn2c(=O)c(-c3cccs3)nc3cnc(N(C)C)nc32)c1 | inactive |  |
| O=C(Nc1ncccn1)C1=C(O)c2ccccc2S(=O)(=O)N1Cc1ccccc1 | inactive |  |
| Cc1cc(Nc2ccccc2O)nc(C)n1 | inactive |  |
| COc1ccc(NC(=O)CCCN2C(=O)CCn3nc(-c4cn(C)c5ccccc45)cc32)cc1 | active: 23.1 µM |  |
| Cc1ccc(-c2nnc(OCc3nc4ccccc4n3C)c3ccccc23)cc1 | inconclusive: 0.0164 µM [inhibitor, full curve, poor fit] |  |
| Cc1ccc(C(=O)COC(=O)C2C3C=CC(C3)C2C(=O)OCC(=O)c2ccc(C)c(C)c2)cc1C (stereo not given) | inconclusive: 25.9 µM [inhibitor, single point] |  |
| CCCOc1cccc(C(=O)NC(=S)Nc2cccc(C(F)(F)F)c2)c1 |  | inconclusive: -30.3% [inhibitor] |
| COc1cc(C(O)c2nc(-c3cccs3)cs2)ccc1F (stereo not given) | inconclusive: 18.4 µM [inhibitor, single point] |  |
| Cc1nn(Cc2cccc(C(N)=O)c2)c(C)c1Br | inactive |  |
| O=C(Cn1c(COc2ccccc2)nc2ccccc21)Nc1cc(Cl)cc(Cl)c1 | active: 18.4 µM |  |
| CC(C)c1ccc(S(=O)(=O)N2CCN(C(=O)CCc3nc4ccccc4c(=O)[nH]3)CC2)cc1 | inconclusive: 20.6 µM [inhibitor, partial curve] |  |
| O=C1CCN(Cc2ccccc2)CCN1[C@H](COc1ccccc1)c1ccccc1 | inactive and inconclusive: 23.1 µM [inhibitor, single point] |  |
| Cc1cccc(C)c1-n1ncc(C(=O)NCCN2CCN(C)CC2)c1C1CCN(C(=O)OC(C)(C)C)CC1 | inconclusive: 3.26 µM [inhibitor, partial curve, poor fit] |  |
| COc1ccccc1CN1CCC2(CCC(CNC(=O)c3ccccc3N(C)C)O2)CC1 (stereo not given) |  | inactive: -12.1% [at 9.04 µM] |
